Test [1] deals with HSkMC (human skeletal muscle cells). Briefly: cytotoxicity call (relative viability < 0.9). The settings on record: 10 µM.
In test [2] the test system is HepG2. Briefly: cytotoxicity call (relative viability < 0.9). As to conditions: 10 µM.
Test [3] relates to S. aureus RN4220. As to the kind of experiment: growth inhibition call (relative growth <= 0.2). The settings on record: 50 µM.

The list shows a part of the results.

On to `COc1ccc(S(=O)(=O)Nc2ccc3c(c2)C(=O)N([C@H](C)CO)C[C@H](C)[C@H](CN(C)S(C)(=O)=O)OCCCC[C@H](C)O3)cc1`, for which the cytotoxicity call in test [1] and in test [2] was “inactive” throughout. The growth inhibition call in test [3] was “inactive”.

As for `O=C(N[C@@H]1CC=CC[C@H](CC(=O)N(CCO)Cc2ccccc2)C(=O)NC[C@H](c2ccccc2)OC1=O)OCC1c2ccccc2-c2ccccc21`, the cytotoxicity call in test [1] and in test [2] was “inactive” each time. For the same compound, the growth inhibition call in test [3] is “inactive”.

For `CO[C@H](C(=O)N(C)C[C@H]1OCc2ccccc2-c2c(n(C)c3ccccc23)C(=O)N([C@@H](C)CO)C[C@@H]1C)c1ccccc1`, the cytotoxicity call in test [1] and in test [2] was “inactive” each time. In test [3], the growth inhibition call is “inactive”.

`C[C@H]1CN([C@@H](C)CO)C(=O)c2cccc(NC(=O)C3CC3)c2O[C@@H]1CN(C)Cc1ccc2c(c1)OCO2`: the cytotoxicity call in test [1] and in test [2] was “inactive” each time. In test [3], the growth inhibition call is “inactive”.

Regarding `CCO[C@H]1OC(C(=O)N2CCN(Cc3ccc4c(c3)OCO4)CC2)=C[C@@H](c2csc3ccccc23)[C@@H]1CCCOC(=O)NCCCCCC(=O)NO`, the cytotoxicity call in test [1] and in test [2] was “inactive” throughout. In addition, the growth inhibition call in test [3] is “inactive”.

Turning to `C[C@@H]1CN([C@H](C)CO)C(=O)Cc2cc(NS(=O)(=O)c3ccc(F)cc3)ccc2O[C@H]1CN(C)S(=O)(=O)c1ccccc1`, the cytotoxicity call in test [1] and in test [2] was “inactive” in each case. In addition, the growth inhibition call in test [3] is “inactive”.

As to `Cc1ccc(S(=O)(=O)Nc2ccc3c(c2)C(=O)N([C@H](C)CO)C[C@H](C)[C@@H](CN(C)C(=O)Nc2ccccc2)OCCCC[C@H](C)O3)cc1`, the cytotoxicity call in test [1] and in test [2] was “inactive” in each case. In addition, the growth inhibition call in test [3] was “inactive”.

As to `C[C@@H]1CN([C@H](C)CO)C(=O)Cc2cc(NC(=O)CCCCCC(=O)Nc3ccccc3N)ccc2O[C@H]1CN(C)C(=O)Nc1ccc(F)cc1`, the cytotoxicity call in test [1] and in test [2] was “inactive” in each case. The growth inhibition call in test [3] is “inactive”.

Take `CN(C)CC(=O)NS(=O)(=O)c1ccccc1`: the cytotoxicity call in test [1] and in test [2] was “inactive” throughout. In addition, in test [3], the growth inhibition call is “inactive”.

As to `C[C@@H]1CCCCO[C@H](CN(C)Cc2ccc(C(=O)Nc3ccccc3N)cc2)[C@@H](C)CN([C@H](C)CO)C(=O)c2cc(NC(=O)c3ccccc3)ccc2O1`, in test [1], the cytotoxicity call was “inactive”. Besides, the cytotoxicity call in test [2] was “active”. For the same compound, the growth inhibition call in test [3] is “inactive”.

Consider `CO[C@@H]1CN(C)C(=O)c2cc(NC(=O)c3ccc(F)cc3)ccc2OC[C@@H](C)N(C(=O)CN(C)C)C[C@@H]1C`, for which the cytotoxicity call in test [1] and in test [2] was “inactive” in each case. The growth inhibition call in test [3] was “inactive”.

Consider `CC(C)NC(=O)N(C)C[C@H]1Oc2c(NC(=O)C3CCCCC3)cccc2C(=O)N([C@H](C)CO)C[C@@H]1C`, for which the cytotoxicity call in test [1] and in test [2] was “inactive” each time. In test [3], the growth inhibition call was “inactive”.

Regarding `C[C@@H]1CN([C@@H](C)CO)C(=O)c2cccc(NC(=O)NC3CCCCC3)c2O[C@H]1CN(C)S(C)(=O)=O`, the cytotoxicity call in test [1] and in test [2] was “inactive” each time. For the same compound, the growth inhibition call in test [3] was “inactive”.

As to `COc1ccc(CN(C)C[C@@H]2OCCCC[C@@H](C)Oc3ccc(NC(=O)Nc4ccc(F)cc4)cc3C(=O)N([C@H](C)CO)C[C@@H]2C)cc1`, the cytotoxicity call in test [1] and in test [2] was “inactive” in each case. For the same compound, the growth inhibition call in test [3] is “inactive”.

In the case of `Cc1noc(C)c1NC(=O)Nc1cccc2c1O[C@H](CN(C)Cc1ccc(C(=O)Nc3ccccc3N)cc1)[C@@H](C)CN([C@@H](C)CO)C2=O`, the cytotoxicity call in test [1] and in test [2] was “inactive” in each case. Also, in test [3], the growth inhibition call was “inactive”.

Take `COCC(=O)N1C[C@H](C)[C@@H](OC)CN(C)C(=O)c2ccc(NC(=O)c3ccc(F)cc3)cc2OC[C@@H]1C`: the cytotoxicity call in test [1] and in test [2] was “inactive” each time. The growth inhibition call in test [3] was “inactive”.

Consider `Cc1noc(C)c1NC(=O)Nc1ccc2c(c1)C(=O)N([C@H](C)CO)C[C@H](C)[C@@H](CN(C)C(=O)Nc1ccc(C(F)(F)F)cc1)OCCCC[C@H](C)O2`, for which the cytotoxicity call in test [1] and in test [2] was “inactive” throughout. In addition, in test [3], the growth inhibition call is “inactive”.

Take `C[C@@H]1CN([C@@H](C)CO)C(=O)CCCn2nncc2CO[C@H]1CN(C)C(=O)C1CC1`: the cytotoxicity call in test [1] and in test [2] was “inactive” in each case. For the same compound, in test [3], the growth inhibition call was “inactive”.

`COc1ccc(S(=O)(=O)Nc2ccc3c(c2)C(=O)N([C@H](C)CO)C[C@H](C)[C@@H](CN(C)C(=O)Nc2cccc4ccccc24)OCCCC[C@@H](C)O3)cc1`: the cytotoxicity call in test [1] and in test [2] was “inactive” each time. Moreover, the growth inhibition call in test [3] is “inactive”.

Turning to `S=C1NCN(C2CCCC2)CN1`, the cytotoxicity call in test [1] and in test [2] was “inactive” in each case. In addition, in test [3], the growth inhibition call is “inactive”.

For the compound `Cc1noc(C)c1S(=O)(=O)N(C)C[C@H]1Oc2ccc(NC(=O)Nc3ccc4c(c3)OCO4)cc2C(=O)N([C@H](C)CO)C[C@@H]1C`, the cytotoxicity call in test [1] and in test [2] was “inactive” each time. The growth inhibition call in test [3] is “inactive”.

For the compound `CC(C)c1cc(N2CC[C@@H](N)C2)nc(N)n1`, the cytotoxicity call in test [1] and in test [2] was “inactive” throughout. Further, the growth inhibition call in test [3] was “inactive”.

For `O=C(C[C@@H]1CC[C@H](NC(=O)CN2CCOCC2)[C@H](CO)O1)NCc1cccc(F)c1`, the cytotoxicity call in test [1] and in test [2] was “inactive” in each case. Further, the growth inhibition call in test [3] is “inactive”.

For `CCS(=O)(=O)N1C[C@]2(C1)CN([C@@H](CO)c1c2c2ccc(cc2n1C)OC)C(=O)Nc1cccc(c1)F`, the cytotoxicity call in test [1] and in test [2] was “inactive” throughout. For the same compound, the growth inhibition call in test [3] was “inactive”.

With `COc1cccc(S(=O)(=O)N2C[C@H](O)COC[C@@H]3O[C@H](CC(=O)N4CCN(c5ccccc5)CC4)CC[C@H]32)c1`, the cytotoxicity call in test [1] and in test [2] was “inactive” in each case. The growth inhibition call in test [3] was “inactive”.

Regarding `C[C@@H]1CN([C@H](C)CO)C(=O)c2cccc(NC(=O)Nc3ccc4c(c3)OCO4)c2O[C@@H]1CN(C)S(=O)(=O)c1cn(C)cn1`, the cytotoxicity call in test [1] and in test [2] was “inactive” in each case. Moreover, the growth inhibition call in test [3] is “inactive”.

As to `C[C@@H]1CN([C@H](C)CO)C(=O)Cc2cc(NS(=O)(=O)c3cn(C)cn3)ccc2O[C@@H]1CN(C)Cc1ccc(C(=O)O)cc1`, the cytotoxicity call in test [1] and in test [2] was “inactive” throughout. Besides, in test [3], the growth inhibition call is “inactive”.

The record behind these values is the antibiotic and cytotoxicity screens of Wong et al. (2023).
